From PubChem BioAssay AID651820 (National Center for Advancing Translational Sciences (NCATS), 2012)
Screen size: about 340,000 compounds; about 12,000 (3.5%) were called active. The inconclusive results got no clear call from the source; some entries with a clear call stand among them for comparison. Calls come from the whole dose curve; as a rule, active = well fitted inhibition curve with a large enough effect; inconclusive = small, poorly fitted or top-dose-only effect, or another doubt; inactive = no such curve, though single readings can be large or run the other way. Potencies of inconclusive entries are left out as doubtful fits.
% is set by controls: 0 for no effect and ±100 for the full control effect; potency is the fitted concentration of half-maximal effect; tags give direction and shape of the fitted curve.

Assay: qHTS Assay for Inhibitors of Hepatitis C Virus (HCV)
Conditions: Huh7.5.1 HCVcc-Cre (HCVcc is cell-culture hepatitis C virus) infection, luciferase reporter, 44 h; activity change, negative = inhibition: at 41.8 µM (top of the series) unless noted
In short: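 Antiviral activity was scored by luciferase reporter output from cells infected with HCVcc-Cre (~0.5 moi) in presence of compound, 44 h infection period, cells seeded 1,000/well 4 h prior.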
In the case of CC1=CC(=O)CC(C)(C)C1(O)/C=C/C(C)=C/C(=O)O (centres undefined), the “activity change, negative = inhibition” value is reported as inactive: 15.7%.
With O=C(Nc1ccc(F)cc1)c1nn(-c2ccccc2)c(=O)cc1Cl the Potency was active: 6.31 µM.
For O=C(COc1ccc(C(=O)c2ccccc2)cc1)Nc1ncccc1O, the “activity change, negative = inhibition” value was inactive: -6.52%.
With CCn1cc(CN2CCN(CCc3ccccc3)C(CCO)C2)c(C)n1 (centres undefined) the “activity change, negative = inhibition” value was inactive: 9.18%.
With CCOc1cc2[nH]c(=O)n(CC3CCC(C(=O)NCCC(C)C)CC3)c(=O)c2cc1OCC (centres undefined) the “activity change, negative = inhibition” value was inactive: 7.45%.
For CSC1=NCCN1C(=O)c1cccs1, the “activity change, negative = inhibition” value was inactive: 1.75%.
In the case of COC(=O)c1ccc(NC(=O)Cn2nc(C(=O)Nc3ccc(C)cc3)ccc2=O)cc1, the “activity change, negative = inhibition” value is reported as inactive: 10.5%.
For CN1CCN(Cc2cc(=O)oc3ccc(Cl)cc23)CC1, the “activity change, negative = inhibition” value was inactive: -27.3%.
In the case of O=c1[nH]c2ccccc2nc1CCc1ccccc1, the Potency is reported as inconclusive [inhibitor, single point].
For Cc1ccnc(N2C(=O)c3cccc4c([N+](=O)[O-])ccc(c34)C2=O)c1, the Potency was active: 11.2 µM.
For Cn1cccc1/C=C1\SC(=Nc2ccccc2)NC1=O, the Potency was active: 7.94 µM.
With Cc1cc2ncc(-c3cccc(Cl)c3)cn2n1 the “activity change, negative = inhibition” value was inactive: 13.3%.
For O=C(c1cc2cc([N+](=O)[O-])ccc2s1)N1CCOCC1, the “activity change, negative = inhibition” value was inactive: 4.79%.
In the case of CCOC(=O)c1[nH]c(C)c(C(=O)OCc2c(C)noc2C)c1C, the Potency is reported as inconclusive [inhibitor, full curve].
With O=C(CSc1ccc2nnc(CCNC(=O)c3ccccc3)n2n1)Nc1ccccc1F the Potency was inconclusive [inhibitor, single point].
For CCCCOc1ccc(C(=O)N(C)CC(=O)Nc2ccc(C)cc2)cc1, the “activity change, negative = inhibition” value was inactive: -12.3%.
For O=S(=O)(c1cc(Cl)cc(Cl)c1)N1CCC2CC1c1cc(Cl)ccc12 (centres undefined), the activity change, negative = inhibition was inactive: -5.33% [at 8.37 µM].
For CCn1cc(CNC(=O)CCSc2nc(-c3ccco3)cc(C(F)(F)F)n2)cn1, the Potency was inconclusive [inhibitor, single point].
For CCCC[n+]1ccn(-c2nc3ccccc3nc2[N-]S(=O)(=O)c2ccc(C)cc2)c1, the “activity change, negative = inhibition” value was inactive: 9.29%.
For Cc1nn(C)c(C)c1NC(=O)COc1ccc(Cl)cc1Br, the Potency was inconclusive [inhibitor, full curve, poor fit].
In the case of CCCC(C)C1(CC)C(=O)NC(=Nc2ccccc2)NC1=O (centres undefined), the Potency is reported as inconclusive [inhibitor, single point].
For CCOc1cc(NC(=S)NCCOC)c(OCC)cc1NC(=O)c1ccco1, the Potency was inconclusive [inhibitor, partial curve].
With CCSc1nsc(NC(=O)Nc2ccccc2OC)n1 the Potency was inconclusive [inhibitor, single point].
For Cc1nc(N2CCN(C(=O)c3ccc(Cl)cc3)CC2)c(C#N)c2c1COC(C)(C)C2, the Potency was inconclusive [inhibitor, single point].
In the case of CCCN(CC(=O)NC(=O)NC1CCCCC1)CC(=O)Nc1cc(Cl)ccc1Cl, the Potency is reported as inconclusive [inhibitor, single point].
For O=C1NC2c3c(Cl)sc(Cl)c3C(=O)C2O1 (centres undefined), the Potency was inconclusive [inhibitor, single point].
With COC(=O)c1ccc(CO/N=C2\CCCc3nonc32)cc1 the “activity change, negative = inhibition” value was inactive: 19.4%.
In the case of CCCn1c(CNC(=O)Cc2ccccc2)nc2ccccc21, the Potency is reported as inconclusive [inhibitor, partial curve, poor fit].
In the case of Cc1oc2nc(SCC(=O)Nc3ccc(S(N)(=O)=O)cc3)nc(NC(=O)c3ccccc3)c2c1C, the Potency is reported as inconclusive [inhibitor, full curve, poor fit].
In the case of CCCC[N+]12CCC(CC1)C(=C(c1ccccc1)c1ccccc1)C2, the “activity change, negative = inhibition” value is reported as inactive: 12%.
With CCC(=O)N1CCN(C(C)=O)C1c1ccccc1 (centres undefined) the Potency was inconclusive [inhibitor, single point].
With C/C(=N\NC(=S)Nc1cc(S(=O)(=O)N2CCOCC2)ccc1Cl)c1ccccc1F the Potency was inconclusive [inhibitor, full curve].
With CCOC(=O)N1CCN(C(=O)C2CC(=O)N(c3ccc(C)cc3)C2)CC1 (centres undefined) the “activity change, negative = inhibition” value was inactive: 11.2%.
In the case of CCN1/C(=C2\C(=O)N(C)C(=S)N2C)C=Cc2cc(C)ccc21, the “activity change, negative = inhibition” value is reported as inactive: 1.81%.
For Cc1ccccc1C(=O)Nc1ccc(S(=O)(=O)N2CC(C)OC(C)C2)cc1 (centres undefined), the Potency was inconclusive [inhibitor, partial curve].
For O=C(Cc1ccccc1)c1ccccc1C(=O)N1CCCCC1, the Potency was active: 3.16 µM.
With COc1ccc(CN(CCC(c2ccccc2)c2ccc(OC(C)C)cc2)C(=O)CCl)cc1OC (centres undefined) the Potency was inconclusive [inhibitor, single point].
In the case of CC(=O)c1ccccc1OCC(=O)Nc1cccc(S(=O)(=O)N2CCCC2)c1, the “activity change, negative = inhibition” value is reported as inactive: -28.3%.
With O=C(c1cccc(C(F)(F)F)c1)N1CCOC12CCN(c1ncc(C(F)(F)F)cc1Cl)CC2 the Potency was inconclusive [inhibitor, partial curve].
In the case of CCOC(=O)c1ccc(NC(=O)CC2SC(=NC)N(C)C2=O)cc1 (centres undefined), the Potency is reported as inconclusive [inhibitor, single point].
For Cc1nc(NC(=O)c2cccc(Cl)c2)sc1C(=O)N1CCCCC1, the “activity change, negative = inhibition” value was inactive: -28.7%.
With Fc1ccccc1-c1cc2ccccc2cn1 the “activity change, negative = inhibition” value was inactive: 13.5%.
With Cc1ccc(CN2CCNC(=O)C2CC(=O)N(C)Cc2cnccn2)cc1 (centres undefined) the “activity change, negative = inhibition” value was inactive: 4.86%.
In the case of CCOC(=O)C1CCN(C(=O)CCCn2nc(C)c3c(C)n(-c4ccc(C)cc4)nc3c2=O)CC1, the “activity change, negative = inhibition” value is reported as inactive: -12.1%.
With O=C(c1ccc2c(=O)n(-c3ccccc3)c(=S)[nH]c2c1)N1CCCCC1 the Potency was inconclusive [inhibitor, full curve].
For NC(=O)c1sc2nc3c(c(-c4cccs4)c2c1N)CCCCC3, the “activity change, negative = inhibition” value was inactive: -3.46%.
For COc1cc(NC(=O)COc2ccc(-n3cnnn3)cc2)c(OC)cc1Cl, the Potency was inconclusive [inhibitor, full curve].
In the case of O=C(CSC1=NS(=O)(=O)c2cc(Cl)ccc2N1)NCc1ccccc1, the “activity change, negative = inhibition” value is reported as inactive: 20.4%.
With N#Cc1c(SCC(=O)Nc2ccc(Cl)cc2Cl)sc2c(O)cc(=O)[nH]c12 the Potency was inconclusive [inhibitor, partial curve].
For Cc1cccc(-c2nnc3sc(-c4ccccc4C)nn23)c1, the Potency was inconclusive [inhibitor, single point].
With CCn1c(=O)n(CC)c2cc(N3CCCC3)c(NC(=O)c3ccccc3OC)cc21 the Potency was inconclusive [inhibitor, full curve].
For C#CCOCCOCCOCCNc1nc(N2CCN(C(=O)CCCCCCCCCCNC(=O)[C@H](CCCCN)n3cc(C[C@@H](C)CC)nn3)CC2)nc(N2CCN(C(=O)CCCCCCCCCCNC(=O)[C@H](CCCN=C(N)N)n3cc(C[C@@H](C)CC)nn3)CC2)n1, the Potency was inconclusive [inhibitor, single point].
For CCCS(=O)(=O)c1c(S(=O)(=O)CCC)c2c(C)cccn2c1C(=O)N/N=C/c1cc(O)cc(O)c1, the Potency was inconclusive [inhibitor, single point].
For CN(C)c1ccc(/C=N\S(=O)(=O)c2ccccc2)cc1, the “activity change, negative = inhibition” value was inactive: 0.89%.
In the case of CCS(=O)(=O)c1ccc2oc(Nc3ccccc3Br)nc2c1, the “activity change, negative = inhibition” value is reported as inactive: -19.8%.
With COc1ccc(/C=C/C(=O)NCc2cn(C)nc2C)cc1COc1ccc(Br)cc1 the Potency was inconclusive [inhibitor, single point].
In the case of COc1cc(C#Cc2ccc3cc(CCCO)oc(=O)c3c2)cc(OC)c1, the Potency is reported as inconclusive [inhibitor, full curve].
In the case of CCc1ccc2nc(N(CCCN(C)C)C(=O)c3ccc(S(=O)(=O)N(C)C4CCCCC4)cc3)sc2c1, the “activity change, negative = inhibition” value is reported as inactive: -26.6%.
With Fc1ccc(Cn2nnnc2CN2CCc3ccccc3C2)cc1 the Potency was inconclusive [inhibitor, partial curve].
In the case of O=C(CCCc1nc(-c2ccc(Cl)cc2)no1)NC1CCCC1, the Potency is reported as inconclusive [inhibitor, full curve].
With CCCCS(=O)(=O)N1CCN(C(=N)N[N+](=O)[O-])CC1 the “activity change, negative = inhibition” value was inactive: 21.1%.
With COc1ccc(Br)cc1C(=O)Nc1ccccc1N1CCCC1 the Potency was inconclusive [inhibitor, partial curve].
For C=CCn1c(SCC(=O)N2CCc3ccccc3C2)nc2sc(C)c(C)c2c1=O, the Potency was inconclusive [inhibitor, single point].
With CCN(CC)CCN(C(=O)c1ccc2ccccc2c1)c1nc2ccc(F)cc2s1 the Potency was inconclusive [inhibitor, partial curve].
In the case of O=C(CSc1nc(-c2ccc(F)cc2)cc(C(F)(F)F)n1)NCCN1CCOCC1, the Potency is reported as inconclusive [inhibitor, single point].
For CC(c1nnc(SCC(=O)Nc2cccnc2Cl)n1Cc1ccccc1)N(C)C (centres undefined), the “activity change, negative = inhibition” value was inactive: -3.43%.
In the case of COc1cc(-c2cc(C(=O)NCc3ccco3)c3ccccc3n2)cc(OC)c1OC, the Potency is reported as inconclusive [inhibitor, partial curve].
With c1ccc(-c2ccc3[nH]ccc3c2)cc1 the “activity change, negative = inhibition” value was inactive: 0.998%.
With CCCOc1ccc(C(=O)c2ccccc2C(=O)OC2CCOC2=O)cc1OCCC (centres undefined) the Potency was inconclusive [inhibitor, single point].
For COc1ccccc1Nc1cc(C(=O)NCc2cccnc2)c2ccccc2n1, the “activity change, negative = inhibition” value was inactive: -5.44%.
In the case of NC(=O)c1nsc(C(=O)N(c2ccccc2)C(C(=O)NC2CCCCC2)c2ccc(O)cc2)c1N (centres undefined), the Potency is reported as inconclusive [inhibitor, single point].
With CCCSc1nc2c(c(=O)n(C)c(=O)n2C)n1Cc1ccc(C)cc1 the Potency was inconclusive [inhibitor, partial curve].
In the case of COc1cccc(CC(=O)NC2CCSc3ccccc32)c1 (centres undefined), the “activity change, negative = inhibition” value is reported as inactive: -11.8%.
For CN(Cc1ccccc1)c1nc(-c2cccc([N+](=O)[O-])c2)nc2ccccc12, the Potency was inconclusive [inhibitor, partial curve].
